Measured values reported in the supplement of paper PMC3724861.
Some of the results follow.

tested on: T1, Caupolican (Caup) homeodomain DNA-binding domain; experiment: PBM E-score (8-mer, recovered from the published 9-mer minima) (E-score (dimensionless, -0.5 to 0.5)); Drosophila protein; higher = stronger relative binding preference, active = 0.31 or more
T1 sequence: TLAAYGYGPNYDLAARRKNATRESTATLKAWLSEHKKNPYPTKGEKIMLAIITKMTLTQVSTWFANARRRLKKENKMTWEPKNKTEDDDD
Outline: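 Caup's homeodomain DNA-binding domain (residues 214-303) was made by in vitro transcription and translation and applied at 100 nM to custom-designed protein binding microarrays. Each value is an enrichment score that gives relative binding preference for a short DNA word, with higher meaning stronger. The 8-mer values were recovered from published 9-mer scores, each of which was the minimum of its two constituent 8-mer scores. A cutoff of 0.31 marks candidate sites.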

PBM E-score, ≥ 0.0414:
AAATGGCA

PBM E-score, ≥ -0.0829:
AAGGGTCG

PBM E-score, active:
AAACACGA ≥ 0.351
AAACAACA 0.363
GTTGTACA 0.388
ATGTTAAT 0.352

PBM E-score, inactive:
GAATATAA 0.102
AGGAGGCC -0.19
CTCGGGTC -0.173
CGACGACC -0.0986
AAGGTTAA -0.0112
CGCCTTCC -0.23
ACGTAGCA 0.0628
GCCAACCA -0.17
CGTGCGTA 0.00167
AGATTAGG 0.00061
AGCCGGAA -0.0717
AAACATTC 0.209
GGCGGATA -0.128
GCCCGGCC -0.304
ATTCCAAC 0.0683
CGAGCACA 0.0885
CGCGCTAA -0.0369
GAATGTAA 0.223
ACAGCCGA -0.0617
AACGGAAT 0.0789
AGCCTTTG -0.0446
GCGTCCGA -0.109
GGTAGGTA 0.0213
AGCGTTTC -0.113
CCCAATAG 0.0116
CTAAGATC 0.00342
ATTAGTAC 0.244
AAGTATGG 0.0421
ATGGGCGG -0.0618
AATAATTA 0.182
GATAGACA 0.221
CCAGTCGG -0.252
ATCCTGTG 0.124
AGGTGACT 0.0561
CTTTCCGC -0.119
TGACCTAA 0.102
CATTAGCA 0.0578
AGGGGGCC -0.328
GCAGATCC -0.0138
CCACATTC -0.0268
CATCTCTC -0.0604
TCACTGAA -0.0594
AAAACTCG 0.0449
ATTAGAGG -0.11
ATTCTTAC 0.0953
CCCAGGTC -0.202
CCTGCGCC -0.256
ACTCAAAA 0.0451
CACCTCGA -0.0164
AGATGGAT -0.00579
AGTCGTTC 0.0704
CACCGTAA 0.0636
ATATAGAC 0.16
ACGCAACG -0.0397
CCCCAGAC -0.279
AGCGTTAC 0.0202
GGAAATAC 0.028
ATGGAGAA 0.00663
AGAACGGA -0.0256
AGTCCGAC 0.00681
GACAATAC 0.243
CTGCAATC -0.0299
ATCCGTAG -0.0801
TAAGATGA 0.0929
CTACAGTA 0.143
CCTCGACA 0.115
CTGTCAGA 0.0887
CAGGGCTC -0.224
CACAAAAG -0.0474
AGTAATAT 0.206
CTCAGACC -0.175
GTGAGGTA 0.00731
CAGCCACC -0.164
CGAGAAAA -0.00744
CTAATCGC -0.0168
TTATCAAA 0.109
AAGAAGCA -0.0425
GCGCTACC -0.168
AAATGGAA 0.0926
AAGACGCT -0.12
TATGAACA 0.286
GCGAGGCA -0.165
GAGTCCAC -0.111
CTAACGCA -0.0602
CCGCAAGG -0.169
ATTGCGGA -0.0272
TCAGCGAA -0.126
CAGCTTCA -0.0122
ATTCTCCG -0.0182
AGATTATA 0.0814
ATTTTGTA 0.257
CACACGAG 0.0345
CGTAGCGA -0.161
ACTCGAAT -0.0526
CACGATTA 0.198
ATCCTTCG -0.116
GGTGGGTA -0.059
CGCGACCA -0.128
AAAACTGA 0.024
GATGGCAC -0.0956
AGTCTGAC -0.00953
GACCGAAA -0.103
GGTTTTTA 0.156
AGTTGGGC -0.15
ACTAACTA 0.0312
CCGGAGGA -0.187
AAGTCTCG -0.125
CAAAAGTA 0.0662
CCGCGGGA -0.162
ACCGTAAG -0.0645
TCTTTTAA 0.0287
CCGTTGAG -0.108
ATGGCACA 0.0648
CTCTCCAA -0.098
CTATGGCA -0.0578
TCATGCCA 0.0318
ACTAGCCG -0.0873
CCTCTGCA -0.0612
CAGCCCTC -0.2
AGGCGGTG -0.124
CCAACCAA -0.0875
ACACGGCC 0.0794
TCGTAAAA 0.0862
CCTACGAC -0.0649
CGCTGAGC -0.0837
TCTGAAGA -0.049
ACGCCACC -0.13
ATAATTTG 0.127
CGATTATC 0.0356
CCACATCG 0.0461
CGGGGATA -0.0523
TCTCTGCA -0.0535
CATCGACG -0.0542
AGGCATTA -0.0614
GGCTGTAA 0.045
GTAGTGAC 0.111
CGCATCCA -0.0646
GAGAACGA 0.00546
GCTCGATA -0.101
AGATCTCA -0.0458
CGGGGTCC -0.223
GCCGTTGA -0.0893
GGCCATGA -0.146
GCTTATGA 0.0131
CGACGTCC -0.16
AGGTGTTA 0.207
AGACATCA 0.197
ACTGTCAC 0.0476
CAGGGTTA -0.0166
AACATTGG 0.159
ATAGCTAC 0.0164
CCCGTTAA -0.0644
ACAATAAA 0.17
ACGACGCT -0.0654
GCTCGAGA -0.0658
ATAAGGGA 0.0525
ATCGGAGC -0.221
CGAAGGAA -0.0222
AGGCTCGC -0.138
TCCGTTCA 0.0106
AGAGTACG -0.075
CCAGCCGC -0.245
CCATTGAC -0.026
AGATTAAA 0.115
ATTCTAAA 0.0618
GAGGGACA 0.0675
ATGGGACG -0.109
CAAAGGGC -0.135
CATGCTCG 0.068
AAGGCTTA -0.0473
GTAGTATA 0.219
ACGCTTGA 0.0154
ACCGCATG -0.0108
AGTGTTAC 0.278
AGGCGCCG -0.14
AAGGCCGT -0.107
CTTTTAAA -0.0196
CCGCAGCA -0.196
ATTACCTG 0.0771
ACTATCCA 0.0891
CCACGTTA 0.057
ATAGGACA 0.208
AAATGGGG -0.0821
AATTCGTC 0.0479
ATCAATAG 0.141
AACCCTTC -0.055
CTCCCTCA -0.179
CTAGAGTA -0.0267
ATCCGTGC 0.0481
GTGTGTTA 0.275
AATCTAAT 0.11
CGGCGGAA -0.237
CGCGCAAC -0.0395
GCACTGAC -0.0206
AGTCCTCC -0.105
CCACGAGA -0.107
CCCAGACA 0.0239
CATAGGAA 0.0598
TATTTGGA 0.00759
GGCTATGA -0.0593
GAGGACCA -0.0284
AGAACCCA -0.0466
ACACCAGT 0.101
ACACAAAC 0.261
CCCGATGC -0.176
GCCCTGGA -0.259
ATAGGCGC -0.114
GAACTCAC -0.0518
CTTGAAGC -0.0852
CGACAATC 0.053
ACTAAAGT 0.012
AGGAAAGC -0.118

PBM E-score, ≥ 0.308:
AAGTTGTA

PBM E-score, ≥ 0.214:
AACGTAAT

PBM E-score, ≥ 0.213:
ATTTAATA

PBM E-score, ≥ 0.0351:
ATGGACCA

PBM E-score, ≥ 0.0306:
ATGGGCTA
